Source: the supplement of paper PMC3334620
Over roughly 33,000 sequences, “E-score (-0.5 to 0.5)” has its median near -0.043; the highest 2% begin near 0.37. The list shows a part of the results.

target: T1, Upc2 (UniProt Q12151); experiment: PBM E-score (8-mer binding enrichment) (E-score (-0.5 to 0.5)); higher = stronger / more preferred TF binding; most listed sequences are background and not binding sites; details: protein concentration: 200 nM; construct: GST-full length
T1 sequence: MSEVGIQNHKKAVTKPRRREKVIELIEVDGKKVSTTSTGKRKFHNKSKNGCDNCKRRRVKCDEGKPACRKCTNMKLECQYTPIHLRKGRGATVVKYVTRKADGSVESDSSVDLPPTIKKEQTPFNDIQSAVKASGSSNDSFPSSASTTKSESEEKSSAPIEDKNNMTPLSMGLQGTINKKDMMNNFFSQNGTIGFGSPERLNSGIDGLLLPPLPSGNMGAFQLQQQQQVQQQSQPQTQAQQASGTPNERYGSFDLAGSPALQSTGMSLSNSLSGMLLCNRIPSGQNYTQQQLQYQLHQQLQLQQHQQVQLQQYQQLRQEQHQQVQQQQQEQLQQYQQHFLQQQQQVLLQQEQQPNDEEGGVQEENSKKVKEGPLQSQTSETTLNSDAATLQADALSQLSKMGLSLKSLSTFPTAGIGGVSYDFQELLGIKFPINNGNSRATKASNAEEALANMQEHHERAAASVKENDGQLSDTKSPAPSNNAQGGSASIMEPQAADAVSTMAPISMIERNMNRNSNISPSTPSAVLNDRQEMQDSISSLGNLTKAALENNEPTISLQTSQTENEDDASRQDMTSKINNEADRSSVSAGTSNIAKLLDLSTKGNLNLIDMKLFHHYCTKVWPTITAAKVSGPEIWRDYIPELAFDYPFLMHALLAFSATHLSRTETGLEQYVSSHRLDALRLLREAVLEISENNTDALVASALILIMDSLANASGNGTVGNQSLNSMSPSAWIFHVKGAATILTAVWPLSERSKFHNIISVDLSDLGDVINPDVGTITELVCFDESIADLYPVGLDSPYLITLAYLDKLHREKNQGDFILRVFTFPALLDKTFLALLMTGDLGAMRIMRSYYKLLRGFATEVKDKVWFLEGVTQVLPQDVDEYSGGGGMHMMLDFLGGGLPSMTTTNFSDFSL
Procedure, shortened: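 Detection of bound protein used fluorescent anti-GST, with scans normalised by masliner. The proteins were GST-tagged yeast transcription factors applied at about 100-200 nM to universal all-10-mer Agilent arrays made double-stranded by primer extension. Each ungapped eight-base word, pooled with its reverse complement, was scored with an E-score from the Universal PBM Analysis Suite.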

Sequence | PBM E-score
TACGCCCA | 0.127
CGGTATAG | 0.225
CATCCTTC | -0.197
CTTAATGC | 0.112
AAACAATT | -0.15
AAACGGTG | 0.386
CTAATTAA | -0.0543
AACAATAT | 0.137
CACCGGAG | -0.279
AGGGGAGC | -0.16
ACAAACCC | -0.0784
GGACGGCC | -0.127
CTATTCGA | 0.247
CTTGCCGC | -0.115
CAAAGTCA | -0.0235
AGATGCAC | -0.0352
GAATTCAA | 0.0122
CCGAGGTA | 0.125
GGCATCCA | -0.101
GGTTAGCA | -0.298
AAAAATGC | 0.0191
GAAGCTTC | -0.235
AATCTTCA | -0.0321
CGACCCAC | 0.0439
AGGAAGCC | -0.263

Sequence | PBM E-score
AAGCATTG | -0.00979
GAACGGAC | 0.201
AGGAGATC | -0.153
AGCCTTAA | -0.0139
AAGGGTAC | 0.137
AACAAGTG | -0.191
GTGGAGCA | -0.146
AAGTATTG | -0.137
GGAGCCGA | -0.151
CCCAGTTC | -0.161
TATTTGCA | 0.0347
TGTCCACA | -0.209
ACACTGAT | -0.118
GTGTTTGA | 0.159
GCTCCGAA | -0.0241
AGTATTCC | -0.0174
CAGCACTA | -0.154
GAGTAGTA | 0.0241
CCAGTACC | 0.0225
CCTACCCG | -0.0821
CACATAGC | -0.285
AGCCGGGG | -0.223
CGATCGAA | 0.24
ATGGCGCA | 0.0218
AATCCGCG | 0.0293

Sequence | PBM E-score
ACTATTTA | 0.0589
CTACTTAC | 0.0612
CATCTGAC | -0.272
AATTCTGT | -0.165
GCCGAACC | -0.0772
AACAATTA | 0.066
GGTGGGAC | -0.158
AACTATCC | 0.0104
AGCTATGC | 0.0343
CAATGGCA | -0.196
CGTTACAC | 0.118
ATTACACC | 0.0316
CTACGCAC | -0.0589
GGTGTCCA | -0.0671
ACTGAAAG | -0.105
CCCTTGGA | 0.0336
CCAGCGTA | 0.238
GCGTTTCA | -0.0903
AATGAGAC | -0.13
TCAACCAA | -0.188
ACCTTGAT | 0.00092
TGATGTAA | -0.0191
GTGGTTCA | -0.0569
TAACCGGA | 0.0204
CACTACAC | -0.0177

Sequence | PBM E-score
CGTTTGGA | 0.428
CTTTGGCC | 0.0171
CGGGCATA | 0.0778
AAGCTGCG | -0.0191
AATCAGTA | 0.0172
GCGATGTA | 0.106
AGTACCAG | -0.134
AGTCTGTG | -0.193
ACCTCTGC | -0.21
GGACGTGA | -0.187
AATGCTTC | 0.0794
GAGTAAAC | 0.279
ATTACGTA | 0.309
GTTAGAAC | 0.179
AGCTCGGG | -0.0138
ACCTACTA | 0.00208
TTACCGAA | 0.255
TGATATCA | -0.175
ATTATGCG | 0.316
ATAGGATC | -0.123
ACTGTGAG | 0.0165
CTATCACA | -0.106
GCTTACCA | 0.13
CAAACCTA | -0.0994
AGCATTCC | 0.0981

Sequence | PBM E-score
CTTTTTTA | -0.048
CAACATAG | -0.192
CTCAAATC | -0.0128
AACCAAAG | -0.0416
CCACGGCC | -0.192
CCGGGGTA | -0.0822
CCAGGGGG | -0.322
AATGTGGG | -0.142
ACTGGCCC | -0.0319
GCGAACAA | 0.139
GCGTCTCA | -0.0772
ACCGCCCA | -0.0354
AAGAGACA | 0.134
AACAGGGC | -0.115
AAAAATCC | -0.152
GATCCAGC | 0.052
ATTCTGGC | -0.0354
AAAGAAAC | 0.0617
AGCTATAA | 0.0688
CGGGGAAG | -0.0185
ATGAGCAC | -0.2
ACGTGAAG | 0.101
CCACGTAC | 0.227
CAGCGAGA | -0.115
ACTGATTG | -0.156

Sequence | PBM E-score
AACCTATT | 0.0505
AGGGAACG | 0.39
CCCTAAGA | -0.156
CCAAGACC | -0.279
ATCGTTCA | 0.443
AGATATAA | 0.0828
CTTTTTCA | -0.0478
CTAAAGAC | -0.271
GGCCTAAC | 0.0516
CAACTGCC | -0.104
GCTAGGGA | -0.201
ATCCACCC | -0.179
TCAGTGAA | 0.00083
ACCTGGCG | -0.19
CCATGATC | -0.257
ATACGAGC | 0.489
CATACTGG | 0.0014
GTTCTGTA | 0.0485
ACTTCAGG | -0.216
AGAACATA | 0.132
AAGGAACG | 0.347
ATCATACG | 0.383
AGCCGCCG | -0.247
ATACTGAA | 0.0552
AACACCTG | -0.0435

Sequence | PBM E-score
ATCCGGCC | 0.0361
CTTGACAC | -0.345
GCCCTATA | -0.0587
TAAAAAGA | -0.124
ACGTGCGC | 0.12
CAACGCCA | -0.169
TTCCCAAA | 0.0575
CATGCTGA | -0.0631
AGGCTATG | -0.214
CGTGATTA | 0.0822
GAGTTAAC | 0.0471
CCAGGCGC | -0.181
ACGACGAC | 0.362
GAACATCA | -0.0243
GCTCGTCC | -0.249
ATGTGTAA | -0.0695
CAGTGCGC | -0.241
CGTTGACC | 0.154
GAAGCATC | -0.0855
CCAATGGA | -0.0744
CAGCTGGC | -0.247
CTTAACGC | 0.17
